Test results taken from publication PMC4336329 (PLoS ONE, 2015).
Among all 310,000 compounds or so, about 2,200 (0.71%) showed an effect of 50% or more. The effect is printed as a negative number. The list shows a part of the results.

What follows are compounds tested against human ether-à-go-go-related gene (hERG) potassium channel (human, UniProt Q12809) (assay: primary screen, population patch clamp on CHO cells stably expressing hERG).
Chain of human ether-à-go-go-related gene (hERG) potassium channel (Q12809 whole entry, looked up): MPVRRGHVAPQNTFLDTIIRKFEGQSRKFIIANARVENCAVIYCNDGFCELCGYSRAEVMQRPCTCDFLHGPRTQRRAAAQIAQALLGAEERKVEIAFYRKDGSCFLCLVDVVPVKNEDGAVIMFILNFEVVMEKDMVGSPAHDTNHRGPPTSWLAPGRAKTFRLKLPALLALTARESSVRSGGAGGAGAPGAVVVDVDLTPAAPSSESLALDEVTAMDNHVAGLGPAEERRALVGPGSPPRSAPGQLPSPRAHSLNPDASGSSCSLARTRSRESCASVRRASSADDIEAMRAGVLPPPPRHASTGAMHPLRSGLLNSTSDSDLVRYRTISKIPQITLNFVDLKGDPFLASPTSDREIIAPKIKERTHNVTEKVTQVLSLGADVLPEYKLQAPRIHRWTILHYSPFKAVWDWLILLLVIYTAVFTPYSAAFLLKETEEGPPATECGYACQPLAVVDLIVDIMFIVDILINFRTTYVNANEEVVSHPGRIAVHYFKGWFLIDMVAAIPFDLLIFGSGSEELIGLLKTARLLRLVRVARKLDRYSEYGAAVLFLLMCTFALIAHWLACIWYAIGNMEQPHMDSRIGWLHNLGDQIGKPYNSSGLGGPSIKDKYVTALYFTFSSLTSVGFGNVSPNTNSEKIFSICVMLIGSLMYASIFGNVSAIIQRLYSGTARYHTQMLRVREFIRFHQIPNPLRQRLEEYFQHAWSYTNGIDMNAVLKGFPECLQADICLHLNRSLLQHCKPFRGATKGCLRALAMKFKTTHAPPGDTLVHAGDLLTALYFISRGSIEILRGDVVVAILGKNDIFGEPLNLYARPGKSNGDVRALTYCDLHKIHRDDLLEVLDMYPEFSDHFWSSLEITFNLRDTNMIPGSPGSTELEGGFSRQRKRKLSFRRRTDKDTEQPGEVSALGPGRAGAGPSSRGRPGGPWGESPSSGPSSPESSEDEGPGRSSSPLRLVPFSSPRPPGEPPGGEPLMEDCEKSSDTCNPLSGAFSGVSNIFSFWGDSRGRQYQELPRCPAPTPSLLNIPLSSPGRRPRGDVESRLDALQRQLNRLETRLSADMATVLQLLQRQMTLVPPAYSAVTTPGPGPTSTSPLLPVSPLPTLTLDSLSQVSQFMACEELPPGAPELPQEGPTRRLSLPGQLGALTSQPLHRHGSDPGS

Row | Structure (SMILES) | hERG current change (%, negative = inhibition) at 1uM [%]
1 | O=C(O)Cc1csc(NC(=O)CSc2cccc(C(=O)O)n2)n1 | 10.5
2 | C/C(=N\NC(=O)c1ccccc1)c1ccccc1Br | 17.9
3 | COC(=O)c1cccc(NC(=O)Cc2coc3cc(OC)ccc23)c1 | 7.58
4 | CC(C)CC(=O)NS(=O)(=O)c1ccc(NC(=O)c2ccco2)cc1 | 17.5
5 | NS(=O)(=O)c1cccc2c1c([N+](=O)[O-])cc1nc([O-])c([O-])nc12.[Na+] | 20.2
6 | CCCOc1ncnc2c1[nH]c1ccc(C)cc12 | 9.2
7 | O=C1/C(=C\c2ccco2)SC(=S)N1C1CCS(=O)(=O)C1 (stereo not drawn) | 9.18
8 | O=C(c1ccccc1)N1C(=O)C(c2ccccc2)Oc2ccccc21 (stereo not drawn) | 9.38
9 | CC1=C(C(=O)OCc2ccc3c(c2)OCO3)C(c2cccc([N+](=O)[O-])c2)NC(=O)N1 (stereo not drawn) | 1.04
10 | O=C(Nc1cccnc1Cl)c1ccc(Cl)c([N+](=O)[O-])c1 | 7.11
11 | COc1ccccc1NC(=O)c1ccc(NC(=O)C2COc3ccccc3O2)cc1 (stereo not drawn) | 13.5
12 | O=c1[nH]c(NCCO)nc2c1C1(CCCCC1)Cc1ccccc1-2 | 4.65
13 | O=C(CCCc1ccccc1)Nc1ccnn1C1CCN(Cc2ccc(Cl)cc2)CC1 | -13.2
14 | CC1=CN2C(=N)/C(=C/c3ccc(Sc4ccc(Cl)cc4)o3)C(=O)N=C2S1 | 7.59
15 | CC(=O)Nc1ccc(S(=O)(=O)Oc2cccc(/C=N/N=C3/NC(=O)C(CC(=O)O)S3)c2)cc1 (stereo not drawn) | 15.8
16 | CC1C=CCC2C(=O)N(c3ccccc3OC(=O)c3cccs3)C(=O)C12 (stereo not drawn) | 9.04
17 | CCC(C)N(C(=O)CSc1ccc(NC(C)=O)cc1)C1CCS(=O)(=O)C1 (stereo not drawn) | 22.2
18 | Cc1nc2ccccc2c(=O)n1/N=C/c1cc(Br)ccc1O | 19.1
19 | Nc1nc(CSc2nc3ccccc3s2)nc(N2CCOCC2)n1 | 10.9

Row | Structure (SMILES) | hERG current change (%, negative = inhibition) at 1uM [%]
20 | Cc1ccc(/C(N)=N/OC(=O)COc2ccc(Cl)c(C)c2)cc1 | 11.9
21 | CC(C)N(CCn1c(SCC(=O)Nc2cccnc2Cl)nc2ccccc2c1=O)C(C)C | -23.7
22 | Cc1ccc(N2CC(C(=O)N3CCCc4ccccc43)CC2=O)cc1 (stereo not drawn) | -7.4
23 | COc1cc(C(N)=O)cc(Br)c1OCc1ccccc1 | 14.6
24 | Cc1nc2ccccc2c(=O)n1/N=C/c1ccccc1F | 1.71
25 | c1ccc(Cc2cc(-c3ccccc3)on2)cc1 | 10.7
26 | CC1Cc2ccccc2N1S(=O)(=O)c1cccc(C(=O)OCC(=O)NC2CCS(=O)(=O)C2)c1 (stereo not drawn) | 4.84
27 | O=C(Cn1cnc([N+](=O)[O-])n1)N/N=C/c1ccccc1O | 11.1
28 | O=C(C1CCCCN1S(=O)(=O)c1ccccc1[N+](=O)[O-])N1CCCCC1 (stereo not drawn) | 13.6
29 | CCc1cccc(C)c1NC(=O)CCNC(=O)c1cccc(C)c1 | 14.8
30 | Cc1nn(C)cc1/C=N/NC(=O)C1(O)c2ccccc2-c2ccccc21 | 9.4
31 | CN1CCN(C2CC(=O)N(c3ccc4c(c3)OCCO4)C2=O)CC1.Cl (stereo not drawn) | 14.9
32 | N#Cc1cccc(NC(=O)CCNC(=O)c2ccccc2Cl)c1 | 10.5
33 | CCCCCCCCCCNC(=O)C(=O)Nc1ccccn1 | 10.3
34 | COc1ccc(N2CC(O)=C(c3nc(-c4ccc(Br)cc4)cs3)C2=N)cc1 | 18.6
35 | COc1ccc(C(=O)N2C(=O)c3ccc(N)cc3C2=O)cc1 | 10.2
36 | c1ccc2c(c1)CC1(CCCC1)n1nnnc1-2 | -12.6
37 | CCOc1ccc(C2CC(=O)NC3=C2C(=O)CCC3)cc1Cl (stereo not drawn) | 9.92
38 | CCC1(CC)C(=O)NC(=O)NC1=NCCc1c[nH]c2ccccc12 | 21.2

Row | Structure (SMILES) | hERG current change (%, negative = inhibition) at 1uM [%]
39 | Cc1ccccc1Nc1c(-c2ccncc2)nc2ccc(Cl)cn12 | 6.85
40 | O=C(NCCc1nc2ccccc2[nH]1)/C(=C/c1ccc2c(c1)OCO2)NC(=O)c1ccccc1Cl | -49.9
41 | COc1ccc(C(C[N+](=O)[O-])c2c(C)cc3ccccn23)c(OC)c1 (stereo not drawn) | 17
42 | COc1ccc([C@@H]2Sc3ccccc3NC(=O)[C@@H]2O)cc1 | 7.02
43 | Cc1cc(C(=O)COC(=O)C2CC2)c(C)n1-c1ccc(F)cc1 | 4.45
44 | CC(NC(=O)C1CC1)C(c1cccs1)N1CCOCC1 (stereo not drawn) | 8.13
45 | Cc1ccc(C)c2c1[nH]c1ccc([N+](=O)[O-])cc12 | 13
46 | O=C(O)CCC(=O)OC1CC2CCC1C2 (stereo not drawn) | 2.35
47 | CC1CCCN(CCOCCSc2ccccc2)C1.O=C(O)C(=O)O (stereo not drawn) | -1.26
48 | CCn1nc(C(=O)OCC(=O)N(CCC#N)c2ccccc2)c2ccccc2c1=O | 0.704
49 | CCCCOc1cccc(C(=O)Nc2ccc(NC(=O)c3cccs3)cc2)c1 | 15.7
50 | CC(=O)NCCc1nc2cc(NC(=O)COc3ccc(C)cc3)ccc2n1C | 14.9
51 | O=C(O)CCC(NC(=S)Nc1ccccc1)C(=O)O (stereo not drawn) | 8.14
52 | Cc1ccc(C(=O)O/N=C(\N)Cc2cccs2)cc1[N+](=O)[O-] | 3.66
53 | CCCCn1c(O)c(C=NCCCN(CC)CC)c(=O)[nH]c1=O | 3.77
54 | COc1ccc(NC(=O)C=C(C)C)cc1Cl | 12.1
55 | N#CC1=C(SCC(=O)NC23CC4CC(CC(C4)C2)C3)NC(=O)C(C#N)C12CCCCC2 (stereo not drawn) | 6.03
56 | CC(=O)c1cccc(NC(=O)N2CCCC2C(=O)NCCC(C)C)c1 (stereo not drawn) | 11.7
57 | Cc1ccc([N+](=O)[O-])cc1S(=O)(=O)Nc1ccc(O)c(Sc2ncn[nH]2)c1 | 14.7
